Measurements from the supplement of paper PMC7125110.
This sample is rich in variants without activity.

B1: glmS ribozyme (parent)
chain: AUAAAAGCGCCAGAACUACAGAAAUGUAGUUGACGAGGAGGAGGUUUAUCGAAUUUUCGGCGGAUGCCUCCAAA

Variants of: B1
Experiment: self-cleavage kobs at 160 uM GlcN6P; higher = faster cleavage; RNA array
Conditions: with glucosamine-6-phosphate
Outline: (§1)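 Barcoded ribozyme variants, transcribed in situ by E. coli RNA polymerase on sequenced MiSeq chips, were followed via a hybridised Cy3 probe at 37 °C. Glucosamine-6-phosphate ranged from 40 μM to 10 mM in HEPES/KCl/Mg(OAc)2 buffer. kobs came from decay fits to per-tile medians, and kcat and KM from weighted Michaelis–Menten fits.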

Variant	self-cleavage kobs at 160 uM GlcN6P [s⁻¹]
AUAAAAGCGCCAGAGCUACAGAAAUGUAGUUGACGAGGAGGAGGUUUAUCGAAUUUUCAGCGGAUGCCUUCAAA	< 1e-05
AUAAAAGCGCCAGAUCUACAGAAAUGUAGUUGACGAGGAGAAGGUUUAUCACAUUUUCGGCGGAUGACUCCAAA	< 1e-05
AUAAAAGCGCCAGAUCUACAGAAAUGUAGUUGACGAGGAGGAGGUUUAUCGAAUUUACGGUGGAGGCCUCCAAA	< 1e-05
AUAAAAGCGCCAGAAAUACAGAAAUGUAGUUGACGAGGAGGAGGUAUAUCGAAUAUUCGGCGGAUGCCUCCAAA	< 1e-05
AUAAAAGCGCCAGAACUACAGAAAUGUAAGUGACAAGUAGGAGGUAUAUCGAAUUUUCGGCGGAUGCCUCGAAA	< 1e-05
AUAAAAGCGCCAGAACUACAGAAAUGUAGCCGACGAGGAGGAGGUUUAUCGAAUUUUCGGCGGAUGUCUCCAAA	< 1e-05
AUAAAAGCGCCAGAACUACAGAAAUGUAGGUGACGAGGACGUGGUUUAUCGAAUUUUCGGCGGAUGCCUCCAAA	< 1e-05
AUAAAAGCGCCAGAACUACAGAAAUGUAGUCGACGAGGAGGAGCUUUAUCGAAUUUUCGGCGGAUGCCUCCAAA	< 1e-05
AUAAAAGCGCCAGAACUACAGAAAUGUAGUGGACGAGGAGGAGUUUUAUCUAAUUUUCGGCGGAUGCCUCCAAA	< 1e-05
AUAAAAGCGCCAGAACUACAGAAAUGUAGUUCACGAGGGGGAGGUUUAUCGAAUUGUCGGCGCAUGACUCCAAA	< 1e-05
AUAAAAGCGCCAGAACUACAGAAAUGUAGUUGCCGAGGAGGAGGUUUUUCGAAUUUUCGGCCGAUGCCUACAAA	< 1e-05
AUAAAAGCGCCAGAACUACAGAAAUGUAGUUGCCGAGGAGGAGGUAUAUCGAAUUUUCGGCGGAUGGCUGCAAA	< 1e-05
AUAAAAGCGCCAGAACUACAGAAAUGUAGUUGUCGAGGAGGAGGUUCAUCGAAUUUUCGGCGUAUGCCUCCAAA	< 1e-05
AUAAAAGCGCCAGAACUACAGAAAUGUAGUUGAUGAGGAGGAUGUUUAUAUAAUGUUCGGCGGAUGCCUCCAAA	< 1e-05
AUAAAAGCGCCAGAACUACAGAAAUGUAGUUGAUGAGGAGGAGGUGUAUCGAAUUUUCGGCGGAAGCCUCCAAA	< 1e-05
AUAAAAGCGCCAGAACUACAGAAAUGUAGUUGACUUGGAGGAGGUUUAUCGAAUUUUCGGCGGAUGCCUCCAAA	< 1e-05
AUAAAAGCGCCAGAACUACAGAAAUGUAGUUGACUAGGAGGAGGUUUAUCGAAUUUUUGGCGUAUGCCUCCAAA	< 1e-05
AUAAAAGCGCCAGAACUACAGAAAUGUAGUUGACGGGGAGGAGGUUUGUCGAAUAUUCGGCGGAUGCCUCCAAA	< 1e-05
AUAAAAGCGCCAGAACUACAGAAAUGUAGUUGACGGGUAGGAGCUUUAUCGAAUUUUCGGCGGAUGCCUCCAAA	< 1e-05
AUAAAAGCGCCAGAACUACAGAAAUGUAGUUGACGAAGGGGAGGUUUAUCUAAUUUUCGGCGGAUGCCUCGAAA	< 1e-05
AUAAAAGCGCCAGAACUACAGAAAUGUAGUUGACGAAGAGGAGGUUUAUCGAAUUUUCGGCGGAUGGCUCCAAA	< 1e-05
AUAAAAGCGCCAGAACUACAGAAAUGUAGUUGACGACGCGGAGGUUUAUUAAAUUUUCGGCGGAUGCCUCCAAA	< 1e-05
AUAAAAGCGCCAGAACUACAGAAAUGUAGUUGACGACGAGGAGGUUCAUCGAAUUUUCGUCGGAUGCCUCCAAA	< 1e-05
AUAAAAGCGCCAGAACUACAGAAAUGUAGUUGACGAGAAGGAGAUUUAUCGAAUUUUCGGCGGAUUCCUCCAAA	< 1e-05
AUAAAAGCGCCAGAACUACAGAAAUGUAGUUGACGAGGGGCAGGUGUAUCGAAUUUUCGGCGGUUGCCUCCAAA	< 1e-05
AUAAAAGCGCCAGAACUACAGAAAUGUAGUUGACGAGGUGGAGGUUUAUCGAAUUUGCGGCGGAUGCCUCCAAA	< 1e-05
AUAAAAGCGCCAGAACUACAGAAAUGUAGUUGACGAGGAAGAAGUUUACCGGAUUUUCGGCGGAUGCCUCCAAA	< 1e-05

Variants of: B1
Experiment: self-cleavage kobs at 2500 uM GlcN6P; higher = faster cleavage; RNA array
Conditions: with glucosamine-6-phosphate
Outline: as §1

Variant	self-cleavage kobs at 2500 uM GlcN6P [s⁻¹]
AUAAAAGCGCCAGAUCUACAGAAAUGUAGUUGACGAGGAGAAGGUUUAUCACAUUUUCGGCGGAUGACUCCAAA	< 1e-05
AUAAAAGCGCCAGAUCUACAGAAAUGUAGUUGACGAGGAGGAGGUUUAUCGAAUUUACGGUGGAGGCCUCCAAA	< 1e-05
AUAAAAGCGCCAGAACUACAGAAAUGUAGUUCACGAGGGGGAGGUUUAUCGAAUUGUCGGCGCAUGACUCCAAA	< 1e-05
AUAAAAGCGCCAGAACUACAGAAAUGUAGUUGCCGAGGAGGAGGUUUUUCGAAUUUUCGGCCGAUGCCUACAAA	< 1e-05
AUAAAAGCGCCAGAACUACAGAAAUGUAGUUGCCGAGGAGGAGGUAUAUCGAAUUUUCGGCGGAUGGCUGCAAA	< 1e-05
AUAAAAGCGCCAGAACUACAGAAAUGUAGUUGUCGAGGAGGAGGUUCAUCGAAUUUUCGGCGUAUGCCUCCAAA	< 1e-05
AUAAAAGCGCCAGAACUACAGAAAUGUAGUUGACUUGGAGGAGGUUUAUCGAAUUUUCGGCGGAUGCCUCCAAA	< 1e-05
AUAAAAGCGCCAGAACUACAGAAAUGUAGUUGACUAGGAGGAGGUUUAUCGAAUUUUUGGCGUAUGCCUCCAAA	< 1e-05
AUAAAAGCGCCAGAACUACAGAAAUGUAGUUGACGACGCGGAGGUUUAUUAAAUUUUCGGCGGAUGCCUCCAAA	< 1e-05
AUAAAAGCGCCAGAACUACAGAAAUGUAGUUGACGAGAAGGAGAUUUAUCGAAUUUUCGGCGGAUUCCUCCAAA	< 1e-05
AUAAAAGCGCCAGAACUACAGAAAUGUAGUUGACGAGGAAGAAGUUUACCGGAUUUUCGGCGGAUGCCUCCAAA	< 1e-05
